Whole data set: some 33,000 sequences, median “E-score (dimensionless, -0.5 to 0.5)” near -0.058, cut for the highest 2% near 0.35. Some of the results follow.
tested on: MvaT; test: PBM 8-mer E-score (mean of HK and ME arrays) (E-score (dimensionless, -0.5 to 0.5)); higher = stronger relative binding preference; most listed sequences are background and not binding sites
Method: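 Protein binding microarray: GST-tagged full-length MvaT (P. aeruginosa PAO1) bound to two universal double-stranded 60-mer arrays (ME and HK), each with a constant 25-mer primer and a variable 35-mer region covering all 8-mers. The 8-mer E-score (rank-based, range -0.5 to 0.5, >0.45 = specific binding) is the mean of the two arrays.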

Row | Sequence | PBM 8-mer E-score
1 | CATGCTTA | -0.0242
2 | TCTAATCA | 0.0903
3 | AAATCCTG | 0.0887
4 | CACCGTAC | -0.145
5 | CCATCACC | -0.173
6 | GGTCGCAA | -0.00194
7 | ATCACTTG | 0.0666
8 | GCGGGGGA | -0.135
9 | ATATAGGA | 0.278
10 | GCCTATCA | -0.0719
11 | CGTATAAA | 0.209
12 | ATGTGATC | -0.0628
13 | ATGGGTTC | -0.114
14 | AGGGTATA | 0.167
15 | TCAAATAA | 0.28
16 | ATTTCTCA | 0.182
17 | CGGGGTAC | -0.206
18 | CAGGTCGC | -0.173
19 | ACTGTAGA | 0.0986
20 | AAGCTTTA | 0.0937
21 | CAGCGTAC | -0.225
22 | CTCCTTTC | -0.176
23 | AATGTCGC | -0.0326
24 | GGGTCGAC | -0.124
25 | CTCCGGCA | -0.336

Row | Sequence | PBM 8-mer E-score
26 | GACCCAAC | -0.156
27 | CCAAGGCA | -0.0594
28 | ACCGTGTC | -0.152
29 | ACACTTCC | 0.194
30 | CGCCGTAC | -0.289
31 | GCATCTAC | 0.0552
32 | CTGCTCTC | -0.222
33 | GACGACCC | -0.214
34 | ACTCCGAG | 0.0445
35 | ACTCAATG | -0.00467
36 | ACGATTCT | -0.176
37 | GTTTTATA | 0.243
38 | ACCTCGGG | -0.144
39 | GAGGGTAA | 0.0543
40 | AACTCCCT | -0.0712
41 | CATTTATC | 0.241
42 | ACAAAACC | 0.0844
43 | GACAGATC | -0.173
44 | ACAGTTCT | 0.112
45 | CGAGCAAG | -0.218
46 | TCTGCGAA | 0.0169
47 | GCGGTGAC | -0.202
48 | TAAGGCCA | 0.00955
49 | CTACGCGC | -0.132
50 | GCGATTGA | -0.0741

Row | Sequence | PBM 8-mer E-score
51 | ACGTGTCA | -0.104
52 | CCGTGTAA | 0.0402
53 | CTACTCAA | -0.156
54 | AAGGCACC | -0.136
55 | ACTCAGTA | 0.118
56 | GACTCAGC | -0.234
57 | CCACAAGC | -0.204
58 | CAACGCCG | -0.236
59 | AACAGAAG | 0.102
60 | GCGGGGCA | -0.178
61 | CAGCTTTC | -0.151
62 | AGTTAAAT | 0.383
63 | GTCAAGCA | -0.052
64 | CGGTCTCA | -0.162
65 | GTCCCTCA | -0.177
66 | ACAGTAAG | 0.107
67 | ATCTCCAA | 0.0232
68 | CCGGAAGC | -0.257
69 | TAAGTGGA | 0.0662
70 | AGTCGCTG | -0.0842
71 | ATTCAACC | 0.117
72 | GCTACAAC | 0.0964
73 | TAGCGGGA | -0.138
74 | TAACTGCA | 0.24
75 | CTACAATA | 0.244

Row | Sequence | PBM 8-mer E-score
76 | CGCTCGTA | -0.094
77 | AAGTGAGA | -0.034
78 | ATCATCAA | 0.0305
79 | ATTCTCTC | -0.0442
80 | TCGATGAA | -0.143
81 | CCGAGCAG | -0.247
82 | AACACCAG | 0.0698
83 | ATTAACCA | 0.211
84 | AACGAGGT | -0.0616
85 | GTGTTTTA | 0.259
86 | CCTCCGGA | -0.237
87 | TCAGCAGA | -0.00787
88 | AGTACACT | 0.155
89 | GTTCCGAA | -0.0947
90 | TAGGGGGA | -0.178
91 | AACTGGTA | 0.109
92 | TTTCAAAA | 0.232
93 | CCCCGATC | -0.2
94 | ACGAGGCT | -0.135
95 | CTAATGGA | -0.106
96 | CTATATTC | 0.204
97 | GGGCATGA | -0.171
98 | ACCTAACC | 0.0823
99 | CCAATCTC | -0.00864
100 | AAATCAAG | 0.171

Row | Sequence | PBM 8-mer E-score
101 | ACATGACA | -0.00327
102 | CCAAATAA | 0.204
103 | GTATCTTA | 0.194
104 | ATGGTATG | -0.168
105 | CCAGGTGA | -0.0789
106 | ACCGCTTC | -0.244
107 | AGGGGGAC | -0.284
108 | GAGACGAA | -0.109
109 | GCGTCTCC | -0.28
110 | CTTCGTTC | -0.18
111 | CGAGACCC | -0.121
112 | CGTGTTCC | -0.108
113 | ATACGGTA | 0.0899
114 | ATACCACA | 0.141
115 | GCGGTAGC | -0.198
116 | GAGTAGGC | -0.275
117 | CACCTGGC | -0.212
118 | AGGTGCCA | -0.202
119 | CTTGATGC | -0.171
120 | AGATGGAG | -0.037
121 | ATAATGAT | 0.275
122 | GAAAAAAC | -0.0442
123 | CTTTCTCA | -0.0126
124 | AAGAACTT | 0.206
125 | ACCCAACC | -0.0143

Row | Sequence | PBM 8-mer E-score
126 | TCGGCAGA | -0.145
127 | GACTGTAA | 0.117
128 | GGAGCCCA | -0.203
129 | AGAGCTGG | -0.147
130 | GGGGCCAA | -0.225
131 | GTAGTTAA | 0.283
132 | ACTTAGGA | 0.0667
133 | GCCTTTGA | -0.218
134 | CAGACGCG | -0.17
135 | AGTAGATG | 0.117
136 | CAGGCCAC | -0.199
137 | AGCTCCGA | -0.199
138 | CGGGCCCG | -0.215
139 | CCGCTAAG | -0.0317
140 | AGCTTGGC | -0.246
141 | ACTCATTG | 0.13
142 | AGCACGCG | -0.00877
143 | ACCGGGAA | -0.109
144 | GGGAGTAA | -0.0232
145 | CTATTCAA | 0.153
146 | AGGGGTAC | -0.215
147 | GTGACACA | 0.0291
148 | CTAGGGCC | -0.0588
149 | CCGATCAC | -0.23
150 | AGGGCCAT | -0.241

Row | Sequence | PBM 8-mer E-score
151 | AGCCCTGC | -0.307
152 | GTTCGTCA | -0.00827
153 | CGTGGGGA | -0.179
154 | TAAACCGA | 0.0847
155 | AGCCATGG | -0.159
156 | GCAGGTGA | -0.0889
157 | CTCATGTC | -0.187
158 | AACGGCTT | -0.0621
159 | CAGATGAG | -0.0435
160 | TACGGCTA | -0.116
161 | ATCGGTTC | -0.113
162 | AGCCTTCC | -0.326
163 | CAATATGA | 0.244
164 | CACCGCCG | -0.084
165 | AATCTCTA | 0.083
166 | CGTTGCAA | 0.00647
167 | ATACCCTA | 0.153
168 | CTGTATCC | -0.0396
169 | CAAGCTCG | -0.274
170 | CCGTTGGC | -0.32
171 | ATAAACGC | 0.181
172 | GCTAAGAC | -0.179
